Measured values as given in ChEMBL document CHEMBL1201862, “PubChem BioAssay data set” (2004).
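A five-concentration, 48-hour dose response in 96-well plates underlies each endpoint, interpolated linearly between surrounding concentrations. Abbreviation: GI50, concentration required for 50% inhibition of growth.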 The source made the active and inactive calls. Rule as the data show it: active = GI50 up to about 1.1 µM and inactive = higher. Numbered stars: 1 amine (or outer) side, 2 acyl side, 3 side chain; on linkers, the order of the positions; unused ones are H or OH. Square brackets hold non-standard residues; d marks the D form. Peptide text beside a SMILES is read from it. * marks the point of attachment. X27 = CC(=O)N(C)SCC(N[*:1])C(=O)[*:2]; NMeV = CN[C@H](C(=O)O)C(C)C; X25 = COc1ccc(CN*)c(OC)c1; Octanoyl = CCCCCCCC(=O)*; dNMeA = CN[C@H](C)C(=O)O; Cbz = O=C(OCc1ccccc1)*; Bn = c1ccc(C*)cc1; For = O=C*

These compounds were tested on NCI-H322M (assay: NCI-60 cell line screen, 48 h).

SMILES | GI50
CCOC(=O)Nc1ccc(S(=O)(=O)OC)cc1.CCOC(=O)Nc1ccc(S(=O)(=O)OC)cc1.Nc1ncnc2c1ncn2C1OC(CO)C(O)C1O (centres undefined) | inactive: > 100 µM
CC(C)(C)c1cc(-c2ccc(-c3cc(C(C)(C)C)c(O)c(C(C)(C)C)c3)cc2)cc(C(C)(C)C)c1O | inactive: > 100 µM
CCOc1cc2c(cc1O)C(O)C[C@@H]1[C@@H]2CC[C@]2(C)[C@@H](O)CC[C@@H]12 (some centres undefined) | active: 0.845 µM
O/N=C1\SC(=N\O)/C(=N/O)S\C1=N/O | inactive: > 100 µM
COc1cc2c3cc1Oc1c(OC)c(OC)cc4c1[C@@H](Cc1ccc(O)c(c1)Oc1ccc(cc1)C[C@@H]3N(C)CC2)N(C)CC4.c1ccccc1 | inactive: 19.7 µM
Cc1ccc(-c2cc(=O)c(=O)[nH][nH]2)cc1 | inactive: > 100 µM
CCOC(=O)C1=C(C)N(CC(C)C)C2(O)C(OC)CC(=O)C3C(=O)N(c4ccccc4)C(=O)C132 (centres undefined) | inactive: 44.4 µM
COC(=O)C(C(=O)C(=O)Nc1cccc([N+](=O)[O-])c1)c1nc2ccc([N+](=O)[O-])cc2nc1O (centres undefined) | inactive: > 100 µM
CCOc1ccc(NC(=O)C(=O)C(C(=O)c2ccc3ccccc3c2)C2OC(=O)c3ccccc32)cc1 (centres undefined) | inactive: 15.7 µM
Nc1ccc(C(c2ccccc2)(c2ccccc2)c2ccccc2)cc1 | inactive: 69.7 µM
C#CC1(O)C(COP(=O)(O)OCC2OC(n3ccc(NCCCCCCCCCCCCCCCCCC)nc3=O)C(O)C2O)OC(n2ccc(N)nc2=O)C1O (centres undefined) | active: 0.824 µM
CN(C)CCCNC(CC#N)CCC#N (centres undefined) | inactive: > 10 µM
N#CCc1ccc(C(C#N)/C(CCCC(=O)Nc2cccc([N+](=O)[O-])c2)=N/NC(N)=S)cc1 (centres undefined) | inactive: > 100 µM
CN(CC(=O)O)S(=O)(=O)c1ccc2ccccc2c1 | inactive: > 100 µM
COc1cc2c3c(c1OC)C(=O)C=C3N(S(=O)(=O)c1ccc(C)cc1)CC2 | inactive: > 100 µM
CC(=O)O/C=C\OC1CCCC1 | inactive: > 100 µM
COc1cc2c(cc1Oc1c(Oc3c(O)c(OC)cc4c3C(CC(C)C)N(C)CC4)c(OC)cc3c1C(CC(C)C)N(C)CC3)C(CC(C)C)N(C)CC2 (centres undefined) | inactive: 1.61 µM
N#CC(NNC(=O)c1c(Cl)c(Cl)c(Cl)c(Cl)c1-c1nc2cc(C(=O)c3ccccc3)ccc2[nH]1)c1ccccc1 (centres undefined) | inactive: 26.2 µM
Cc1cn(CC2=NCC(C)N2)c(=O)[nH]c1=O (centres undefined) | inactive: > 100 µM
COC(=O)/C=C1/OC(c2ccc(Br)cc2)=C(Br)C1=O | inactive: 15.1 µM
COC(=O)c1ccc2n[se]nc2c1 | inactive: > 100 µM
CCCCCCCCCCCC(=O)OCC1OC(n2cc(F)c(=O)[nH]c2=O)C(N)C(OC(=O)CCCCCCCCCCC)C1O (centres undefined) | inactive: > 100 µM
O=[N+]([O-])c1cccc(C2=NOC3C4CCC(C4)C23)c1 (centres undefined) | inactive: > 100 µM

SMILES | GI50
O=C1CCC(=O)C12CCc1ccccc12 | inactive: > 100 µM
COC(=O)CN(C)P(=O)(N1CC1)N1CC1 | inactive: > 100 µM
CCOP(=O)(OCC)/C(C#N)=C/c1cnc[nH]1 | inactive: > 100 µM
CC(=O)c1ccc(NC(=O)/C(Cc2ccccn2)=N/NC(=O)C[N+](C)(C)C)cc1 | inactive: > 100 µM
Cc1nc(-c2cccnc2)sc1C(=O)/C=C/c1cccc([N+](=O)[O-])c1 | inactive: > 100 µM
O=S(=O)(c1ccccc1)c1cccc2c1NCCC2 | inactive: 51.2 µM
C=C1CC2(C)CCC(OC(=O)C3(C)OC3C)C(C)(OC(C)=O)C2CC1=C(C)C (centres undefined) | inactive: > 100 µM
NNC(=O)CNC(=O)CSc1nnc(COc2ccc(Cl)cc2)n1-c1ccccc1 | inactive: > 100 µM
COC(=O)c1ccc(NCc2cc(O)c3ccccc3c2O)cc1 | inactive: 11.5 µM
O=c1cc(/N=N\c2ccc(Br)cc2)[nH]c(=S)[nH]1 | inactive: > 100 µM
O=C(O)CCN(CCCCN(CCC(=O)O)CCC(=O)O)CCC(=O)O | inactive: > 100 µM
Cc1n2nc(N)sc2n[n+]1CC(=O)c1ccccc1 | inactive: 25.4 µM
C[C@H]1COC(c2ccccn2)=N1 | inactive: > 100 µM
CC1C=CC(C)C2(O)C(=O)NC(O)C12 (centres undefined) | inactive: > 100 µM
C=CC1[C@H]2COC(C)(C)O[C@@H]2CC(=O)C1(C)C (some centres undefined) | inactive: > 100 µM
O=C1C(CN2CCCC2)CCCC1CN1CCCC1 (centres undefined) | inactive: 17.4 µM
C1CNCCN2CCCNCCN(C1)CC2 | inactive: > 100 µM
CCN(CC)CCNc1ccc([N+](=O)[O-])c2nc3ccc(OC)cc3c(N)c12 | inactive: 1.33 µM
C=CCOC(C)(C)C1=CCC(C)CC1 (centres undefined) | inactive: > 100 µM
COC(=O)C(C(=O)C(=O)Nc1ccc(N)cc1[N+](=O)[O-])c1nc2ccc(Cl)cc2nc1O (centres undefined) | inactive: > 100 µM
COC(=O)Nc1nc2cc(S(=O)(=O)Nc3ccccn3)ccc2[nH]1 | inactive: 65.2 µM
O=C(/C=C\c1cccc2ccccc12)c1ccc(Cl)cc1Cl | inactive: > 100 µM
COC(=O)C1(CCC(=O)N(C)c2ccccc2)NNC2C(=O)N(c3ccccc3)C(=O)C21 (centres undefined) | inactive: > 10 µM

SMILES | GI50
CCOC(=O)C12CCCC1(O)N(NC(N)=O)C(C)=C2C(=O)OC (centres undefined) | inactive: > 100 µM
COc1ccc(/C=C/c2sc3ccccc3[n+]2CCCCI)cc1OC | inactive: > 10 µM
COC(=O)C(CC(C)C)NC(=O)NC12CC3CC(CC(F)(C3)C1)C2 (centres undefined) | inactive: > 100 µM
COc1ccc(NC(C)=O)cc1N1C(=O)/C(=C\c2cc(OC)c(OC)c(OC)c2)S(=O)(=O)C1c1ccccc1 (centres undefined) | inactive: > 100 µM
C=CC[C@@]1(OC(C)=O)C(=O)C(=O)OC1C1COC(C)(C)O1 (some centres undefined) | inactive: 49.8 µM
CN(C)CN1C(=O)S/C(=C2\C(=O)N(CN(C)C)c3ccccc32)C1=O | inactive: > 100 µM
O=C(Nc1ccccn1)c1cc2c(cc1Cl)Sc1nccn1S2(=O)=O | inactive: 17 µM
C=CCCCC1(C)CCCCNC1=O (centres undefined) | inactive: > 10 µM
C=CCN1C(=O)CC(=O)N(NC2=NNC3(C(=O)N2)c2ccccc2-c2ccccc23)C1=S | inactive: 30.9 µM
O=C(O)C12CCC(CC1=O)C2 (centres undefined) | inactive: > 100 µM
COc1ccc(C(=O)CC(c2ccccc2)[C@H]2C(c3ccc(OC)cc3)=Nc3c(nc(SC)n(C)c3=O)NC2c2ccccc2)cc1 (some centres undefined) | inactive: > 100 µM
Clc1ccc(/N=C2\c3ccccc3CN2c2ccc(Cl)cc2)cc1 | inactive: > 100 µM
O=c1c(C(c2ccc(O)cc2)c2c(O)oc3ccccc3c2=O)c(O)oc2ccccc12 | inactive: > 100 µM
COC(C)(C)C(O)C(O)C[C@H](C)C1CC=C2C1(C)CCC1[C@@]3(C)CCC(OC(C)=O)C(C)(C)C3CC(OC3OC(COC(C)=O)C(O)C(O)C3O)[C@@]21C (some centres undefined) | inactive: 3.97 µM
CCOC(=O)c1cc2c([nH]1)C(=O)CC1=C2CCN1Cc1ccccc1 | inactive: 14.6 µM
CCN(CC)CCC(=O)c1ccc(Oc2ccc(F)cc2)cc1 | inactive: > 100 µM
O=C(O)CSc1n[nH]c(=O)[nH]c1=O | inactive: > 100 µM
O=P1(c2ccccc2)CCCCC1 | inactive: > 100 µM
CC(=O)OC1(C)N=NC2(CCCCC2)O1 (centres undefined) | inactive: > 100 µM
CCC(=O)NC(Nc1cccc(F)c1C)(C(F)(F)F)C(F)(F)F | inactive: > 100 µM
COc1cc(C=O)cc(/C=N/c2ccc(Br)cc2)c1O | inactive: 19.2 µM
CC(=O)N(C)SCC(NC(=O)C(Cc1ccccc1)NC(=O)OCc1ccccc1)C(=O)NC(Cc1ccccc1)C(=O)NC(Cc1cn(C=O)c2ccccc12)C(=O)NC(CCCCNC(=O)OCc1ccccc1)C(=O)NC(C(=O)NC(CSN(C)C(C)=O)C(=O)NC(C(N)=O)C(C)OCc1ccccc1)C(C)OCc1ccccc1 (centres undefined) (Cbz-F[X27]FW(For)K(Cbz)T(Bn)[X27]T(Bn)-NH2; configuration not given here) | inactive: > 100 µM
O=C1NC(=O)C(CCC(=O)c2cccc3ccccc23)C(=O)N1 | inactive: > 100 µM

SMILES | GI50
COC(=O)C(Cc1ccccc1)NC(=O)C(CCC(=O)OCc1ccccc1)NC(=O)OC(C)(C)C (centres undefined) | inactive: > 100 µM
O=c1[nH]c(=O)n(C2CC(O)C(CO)O2)cc1I (centres undefined) | inactive: > 100 µM
Cc1ccnc(Nc2[nH]c(C(=O)c3ccc(Cl)cc3)c(N)c2C(=S)Nc2ccccc2)c1 | inactive: 12.9 µM
COc1ccc(N2C(=O)[C@H]3CC(C)c4c([nH]c5ccccc45)[C@H]3C2=O)cc1 (some centres undefined) | inactive: 4.91 µM
CCOC(=O)c1nnsc1NN=C(C)C | inactive: > 100 µM
O=C(c1cccc(OCc2ccccc2)c1OCc1ccccc1)N1CCSC1=S | inactive: 39.5 µM
Cc1cc2nc3c(C(OC4OC(CO)C(O)C(O)C4O)C(O)CO)nn(-c4ccccc4)c3nc2cc1C (centres undefined) | inactive: > 100 µM
CC(C)=CCN(N=O)c1ncnc2[nH]cnc12 | inactive: > 100 µM
CCOC(=O)C(SCCO)C(C(=O)OCC)n1ccc(=O)[nH]c1=O (centres undefined) | inactive: > 100 µM
Cc1ccc(/N=N/c2c(C)nn(C(=O)CC(=O)Nc3ccccc3)c2C)cc1C | inactive: > 100 µM
COc1cc(C2S/C(=C/c3ccccc3)C(=O)N2c2ccc(NC(C)=O)cc2)cc(OC)c1OC (centres undefined) | inactive: 21.4 µM
Cc1cc(C)nc(NS(=O)(=O)c2ccc(NC(=O)c3cccc4c(Nc5ccc(S(=O)(=O)Nc6cc(C)on6)cc5)c5ccccc5nc34)cc2)n1 | inactive: 13.6 µM
CC(=O)N1C(=O)/C(=C\C(=O)c2ccc([N+](=O)[O-])cc2)c2ccccc21 | inactive: > 100 µM
CC12C=C[C@]3(CC[C@@H]4[C@@](C)(CO)CCC[C@]4(C)C3CC1)C2 (some centres undefined) | inactive: > 41.5 µM
Cc1ccc(/N=N/N(C)C(=O)C(C)N)cc1 (centres undefined) | inactive: > 100 µM
O=CN(CCN1CCCC1)C1CCc2cc(Cl)c(Cl)cc2C1 (centres undefined) | inactive: 5.85 µM
Clc1ccccc1NN(Cc1ccncc1)c1ccccc1Cl | inactive: 14 µM
O=C(Nc1ccc(F)cc1)c1cc2c(cc1Cl)Sc1nccn1S2(=O)=O | inactive: > 100 µM
N=C(N)SCCN1CCCCC1 | inactive: 77.3 µM
CCCCCCCC(=O)N[C@H](C(=O)N[C@H](C(=O)N(C)[C@H](C(=O)N1CCC[C@H]1C(=O)N(C)[C@H](C)C(=O)NCc1ccc(OC)cc1OC)C(C)C)C(C)C)C(C)C (Octanoyl-VV[NMeV]P[dNMeA]-X25) | inactive: 20.7 µM
